Assay results: PMC7819943, “Rice protein-binding microarrays: a tool to detect cis-acting elements near promoter regions in rice”
This is one part of the list.

What follows are sequences tested against T1, OsWOX13 (Oryza sativa, UniProt Q5QMM3 1-267) (assay: protein-binding microarray (RPBM); PBS, 2% BSA, 51.3 ng/ul salmon testes DNA, 50 uM zinc acetate, 200 nM TF, 25 C, 1 h; high values mean tight binding). Conditions: protein: recombinant; tags: N-terminal polyhistidine and DsRed monomer fusion (pET32a); label: CyDye5-dUTP incorporated in the synthesized complementary strand; 3' TTTTT single-stranded linker to array surface; dsDNA, one strand shown.
T1 sequence: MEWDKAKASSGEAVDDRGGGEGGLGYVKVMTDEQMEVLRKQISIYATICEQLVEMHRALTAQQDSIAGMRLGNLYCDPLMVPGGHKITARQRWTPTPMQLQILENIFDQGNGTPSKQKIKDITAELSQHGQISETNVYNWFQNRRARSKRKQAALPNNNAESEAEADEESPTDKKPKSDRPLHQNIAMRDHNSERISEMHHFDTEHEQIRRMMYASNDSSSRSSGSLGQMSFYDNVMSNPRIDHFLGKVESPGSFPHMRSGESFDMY
Procedure, shortened: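 In PBS with 2% BSA, salmon testes DNA and 50 µM zinc acetate, 200 nM protein was incubated on a custom Agilent array at 25 °C for 1 h and then washed off. The array had been made double-stranded by primer extension with Cy5-dUTP and blocked with 2% BSA. The proteins were transcription factors fused N-terminally to polyhistidine and DsRed, expressed in E. coli BL21-CodonPlus and purified on Ni–NTA. The binding signal is per-feature fluorescence intensity (arbitrary units) from an Axon 4000B scanner.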

Sequence | binding signal
TTAGTCAATCAACTTACCTTATATGCAAAAGCGCACAAGCCGGAGTCACCTAGTGCAG | 26300 fluorescence intensity (a.u.)
GGTGGGGCCTATGATTGGCAACACAAAATGACTCCCCGAGCGGAGTCACCTAGTGCAG | 21800 fluorescence intensity (a.u.)
TAATGACAGATTAATTAGACTTAATAAATTTATCTCATGGCGGAGTCACCTAGTGCAG | 33500 fluorescence intensity (a.u.)
CTAAATATGAATAATCTGTCTAGAACAAGATTATGGGCATCGGAGTCACCTAGTGCAG | 7020 fluorescence intensity (a.u.)
GTAGTAATTTAATCCGTTGCAGTGTTGCACAAATAGTGAACGGAGTCACCTAGTGCAG | 5410 fluorescence intensity (a.u.)
TTCTTAAATTTTCTATATTTATCCGTTGAAATTTACACAACGGAGTCACCTAGTGCAG | 4180 fluorescence intensity (a.u.)
CATAAACAAAATCAGAGAATCCCAACTGTTCCACTTGACGCGGAGTCACCTAGTGCAG | 3630 fluorescence intensity (a.u.)
ATTTGACCCTGTATTAATTATCCCTTCTTAAAGATTTTGTCGGAGTCACCTAGTGCAG | 3400 fluorescence intensity (a.u.)
AACCGGGAGATTGGAATATCTTAGAGAAACGCTCTTTTCACGGAGTCACCTAGTGCAG | 6520 fluorescence intensity (a.u.)
GTTAATGAATTTATACACATATATATCTAGATTTATTAATCGGAGTCACCTAGTGCAG | 5520 fluorescence intensity (a.u.)
AGGTTTGATTAGTTAGAGACAGGAATCTGCTAACTTCGATCGGAGTCACCTAGTGCAG | 31600 fluorescence intensity (a.u.)
AGCAATGTTGATTGTTTGAGACTGAGTTGAGATGTGGTATCGGAGTCACCTAGTGCAG | 22300 fluorescence intensity (a.u.)
TATTAGATTGGCTATAGATGAATTGGAGCTAGTAGTTGGCCGGAGTCACCTAGTGCAG | 46700 fluorescence intensity (a.u.)
TTACTACTCCGAATCAATCAATTACCCAGGAATTCAGGAACGGAGTCACCTAGTGCAG | 18800 fluorescence intensity (a.u.)
AAAACTAATTGTACAGTTTGTATGGAAAAGCATGGGACGACGGAGTCACCTAGTGCAG | 9770 fluorescence intensity (a.u.)
TTGTCCAAAATGTCAATTATTATAAAACCGGAGAGAGTACCGGAGTCACCTAGTGCAG | 10100 fluorescence intensity (a.u.)
GAAATTTTAATTCTGAGAGAAAATTGAGCTGTCCGAAACCCGGAGTCACCTAGTGCAG | 3660 fluorescence intensity (a.u.)
TGATTTGGCTGATTAGATGCAATTTAGTCCTGCCACTGTGCGGAGTCACCTAGTGCAG | 16900 fluorescence intensity (a.u.)
ATAAATAATCATGCATATATTTCTCTATAGATAGAACCTTCGGAGTCACCTAGTGCAG | 6160 fluorescence intensity (a.u.)
GCGGTGGCGGCGGCGGAGGCGGAGGCGGAGGCGGTGTTGACGGAGTCACCTAGTGCAG | 3420 fluorescence intensity (a.u.)
GTTAATCGAGAATTGTGACGTTACACGGATGCATGATTAGCGGAGTCACCTAGTGCAG | 4410 fluorescence intensity (a.u.)

Sequence | binding signal
AGCCTAATTACGCCATGATTTGACAATGTGGTGCTACAGTCGGAGTCACCTAGTGCAG | 58300 fluorescence intensity (a.u.)
TGTTGTTAGATGATAAAACATGATTAATATTTTATGCGTGCGGAGTCACCTAGTGCAG | 3610 fluorescence intensity (a.u.)
AATAAATCTATAATTTTATGATATTATGACTTAAATCTATCGGAGTCACCTAGTGCAG | 4790 fluorescence intensity (a.u.)
GGCTATAACATTAACTATAGATGATTTAGAGCCAGTGTCTCGGAGTCACCTAGTGCAG | 9850 fluorescence intensity (a.u.)
TGTGATTGCAAGACGTTGCTATTAAGAATTTACATTCCTCCGGAGTCACCTAGTGCAG | 35800 fluorescence intensity (a.u.)
GTCCCAGTTCCACTTGATTTATAGTACCATTATAGCCTGACGGAGTCACCTAGTGCAG | 3500 fluorescence intensity (a.u.)
ACCACTGAAAGAATAATTAGCCGTAAATGCGAGCACCCGTCGGAGTCACCTAGTGCAG | 5480 fluorescence intensity (a.u.)
TGGTGATTATTTTACGGGTTTCGTTGAATAGCTCTCTTTGCGGAGTCACCTAGTGCAG | 31800 fluorescence intensity (a.u.)
CGTGAGTGAAATTTTAATTACGTGTACATATAGGGGAGTACGGAGTCACCTAGTGCAG | 20500 fluorescence intensity (a.u.)
ATATATATATATATATATATGTATCTATATATGTATATATCGGAGTCACCTAGTGCAG | 5960 fluorescence intensity (a.u.)
GCTCATTCAATTCCTCACTTGATCCATCCATCCATCTATCCGGAGTCACCTAGTGCAG | 3580 fluorescence intensity (a.u.)
GTGTGATTTAGGCATAGGGCTGACCATGACCCTTTACGACCGGAGTCACCTAGTGCAG | 7270 fluorescence intensity (a.u.)
TTGAATGGGATATGATTGATGGGACAAGTAGTATTTAGGACGGAGTCACCTAGTGCAG | 40900 fluorescence intensity (a.u.)
GATGTTGATTAGGATGTGACGTGCATACGTGTAGTAGGGTCGGAGTCACCTAGTGCAG | 49400 fluorescence intensity (a.u.)
ATACGTTGAATTTAAATTTGCATGTTTGTGAAGTGACGTACGGAGTCACCTAGTGCAG | 5300 fluorescence intensity (a.u.)
TTTAATTATTTGATATTAGGTTATTCCTTACTATTCGCGTCGGAGTCACCTAGTGCAG | 27400 fluorescence intensity (a.u.)
TCTTCGTTGTCTCCCTCGCTATCACTGTCATATTCCCATCCGGAGTCACCTAGTGCAG | 3840 fluorescence intensity (a.u.)
TGCTAATTTATTCATTAATCGTGCGAGTCTGCTAATCGGTCGGAGTCACCTAGTGCAG | 40000 fluorescence intensity (a.u.)
GCATATCTTAAAATTAATTACTCTGTTTGTTGGATGTAAGCGGAGTCACCTAGTGCAG | 6100 fluorescence intensity (a.u.)
GTTGACTATTAATACAATATTTTGCAGACTGGATACCTTGCGGAGTCACCTAGTGCAG | 3340 fluorescence intensity (a.u.)
TAAATGCAATGATTAAATTCTGGGAAAAGGCTGCCGAATACGGAGTCACCTAGTGCAG | 3400 fluorescence intensity (a.u.)
